According to PubChem BioAssay AID328 (DTP/NCI, 2004):
Toxic doses and inconclusive results are not listed. A number of entries come with more than one value. They are shown here; other results are not. An entry can have further records. The values listed for one entry do not match, cause unknown; they may come from other doses, times, organisms or constructs than stated. Counts like (3×) stand for listed records that agree.

System: BDF1 mice, P388 leukemia ip, median survival T/C
Experiment: NCI In Vivo Anticancer Drug Screen. Data for tumor model P388 Leukemia (intraperitoneal) in B6D2F1 (BDF1) mice
Details: endpoint: median survival time, higher = longer survival
In short: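 Each value expresses how treatment altered survival: treated-mouse outcome over vehicle-mouse outcome, both groups bearing the transplanted tumour.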

C[n+]1cccc2c3ccccc3c(-c3ccccc3)cc21
T/C (dose: 25.0 mg/kg/injection, schedule: Q01DX009 (ip), vehicle: water): 95 % of control and 158 % of control

COc1cccc2c1C(=O)c1c(O)c3c(c(O)c1C2=O)C[C@@](O)(C(=O)CO)C[C@@H]3OC1CC(N)C(O)C(C)O1 (stereo partly specified)
T/C (dose: 3.0 mg/kg/injection, schedule: Q04DX003 (ip), vehicle: saline): 94 % of control and 360 % of control

Cn1cnc([N+](=O)[O-])c1Sc1nc(N)nc2c1ncn2C1CC(O)C(CO)O1 (stereo unspecified)
T/C (dose: 100.0 mg/kg/injection, schedule: Q01DX009 (ip), vehicle: saline): 107 % of control (2×) and 156 % of control

COC(=O)[C@@H](O)[C@](O)(CCC(C)C)C(=O)O[C@@H]1C(OC)=C[C@]23CCCN2CCc2cc4c(cc2[C@H]13)OCO4
T/C (dose: 4.0 mg/kg/injection, schedule: Q01DX009 (sc), vehicle: saline): 120 % of control, 150 % of control, 161 % of control

CCOC(=O)Nc1nc(Cl)c(Cl)nc1Cl
T/C (dose: 100.0 mg/kg/injection, schedule: Q04DX003 (ip), vehicle: water): 98 % of control and 200 % of control

COc1cc(C(=O)c2cocc2C(=O)c2ccc3c(c2)OCO3)cc(OC)c1OC
T/C (dose: 400.0 mg/kg/injection, schedule: Q01DX010 (ip), vehicle: saline): 113 % of control and 156 % of control
